From patent publication US20090018083A1

Molecular target: GAL4-BTB^BCL6 (GAL4 DNA binding domain fused to the wild-type BCL6 BTB domain) (human)
Assay: cell-based or functional assay

## full-length SMRT
  enhancement of repression in reporter assays: 2 to 3 fold
